Test results as given in paper PMC4336329 (PLoS ONE, 2015).
The whole screen tested about 310,000 compounds, of which about 2,200 (0.71%) showed an effect of 50% or more. Effects have a minus sign here. The list shows a part of the results.

These compounds were tested against human ether-à-go-go-related gene (hERG) potassium channel (human, UniProt Q12809) (assay: primary screen, population patch clamp on CHO cells stably expressing hERG).
Chain of human ether-à-go-go-related gene (hERG) potassium channel (Q12809 whole entry, looked up): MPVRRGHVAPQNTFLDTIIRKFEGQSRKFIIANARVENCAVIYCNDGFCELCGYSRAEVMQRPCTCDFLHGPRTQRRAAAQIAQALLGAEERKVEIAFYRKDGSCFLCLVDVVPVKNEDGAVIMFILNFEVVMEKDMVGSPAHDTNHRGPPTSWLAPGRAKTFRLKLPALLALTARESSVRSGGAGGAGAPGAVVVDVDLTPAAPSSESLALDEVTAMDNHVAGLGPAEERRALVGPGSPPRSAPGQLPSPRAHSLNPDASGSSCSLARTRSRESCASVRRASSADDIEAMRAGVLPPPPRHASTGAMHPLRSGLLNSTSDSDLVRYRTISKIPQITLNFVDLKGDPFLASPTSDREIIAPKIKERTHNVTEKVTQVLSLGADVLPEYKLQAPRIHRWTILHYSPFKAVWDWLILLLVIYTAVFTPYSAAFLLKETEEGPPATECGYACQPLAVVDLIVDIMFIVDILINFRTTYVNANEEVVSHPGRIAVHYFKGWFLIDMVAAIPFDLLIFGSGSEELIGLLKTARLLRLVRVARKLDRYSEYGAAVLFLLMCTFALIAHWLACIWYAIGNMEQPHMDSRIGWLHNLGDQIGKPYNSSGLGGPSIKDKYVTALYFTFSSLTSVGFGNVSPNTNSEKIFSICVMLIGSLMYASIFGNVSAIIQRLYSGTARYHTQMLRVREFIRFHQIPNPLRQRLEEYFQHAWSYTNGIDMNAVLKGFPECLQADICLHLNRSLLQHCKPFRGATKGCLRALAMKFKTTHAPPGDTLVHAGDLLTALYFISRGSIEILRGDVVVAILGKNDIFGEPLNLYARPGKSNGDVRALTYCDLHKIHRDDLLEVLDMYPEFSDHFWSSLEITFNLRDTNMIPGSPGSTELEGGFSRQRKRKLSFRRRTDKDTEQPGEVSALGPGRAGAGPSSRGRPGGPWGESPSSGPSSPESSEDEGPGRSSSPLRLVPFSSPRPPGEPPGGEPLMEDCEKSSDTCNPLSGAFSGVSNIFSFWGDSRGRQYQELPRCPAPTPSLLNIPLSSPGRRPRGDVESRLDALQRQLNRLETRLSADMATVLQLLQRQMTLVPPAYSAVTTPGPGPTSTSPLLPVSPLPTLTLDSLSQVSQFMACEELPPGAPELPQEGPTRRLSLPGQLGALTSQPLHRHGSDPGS

SMILES | hERG current change (%, negative = inhibition) at 1uM [%]
C=CCNC(=O)c1onc(CSc2ccccc2F)c1C(=O)O | 17.6
O=C(COC(=O)C1CC1)Nc1ccc(N=Nc2ccccc2)cc1 | 8.32
CN1CCC(N(C)c2ccc(C(N)=O)cc2[N+](=O)[O-])CC1 | 13.6
COC(=O)CSc1[nH]c2ccccc2c1[N+](=O)[O-] | 9.24
Cc1cc(C(=O)OCC(=O)Nc2cccc(S(N)(=O)=O)c2)c2ccccc2n1 | 7.84
O=C(CCCn1cc([N+](=O)[O-])cn1)Nc1ccc2c(c1)OCO2 | 9.46
CC(C)(C)NC(=O)CN(C(=O)CCC(=O)Nc1nccs1)c1ccc(F)cc1 | 11.4
CCOC(=O)C1=C(CC)Nc2ccccc2N=C1NC(=O)c1ccc(OC)c(S(=O)(=O)N2CCCCC2C)c1 (stereo not shown) | -7.89
COc1ccc(N(C(=O)C2COc3ccccc3O2)C(C(=O)NC2CCCCC2)c2ccccc2)cc1OC (stereo not shown) | 6.85
CCCN(CC(=O)Nc1ccccc1C)C(=O)c1ccc(NC2CC2)c([N+](=O)[O-])c1 | 5.34
CCOC(=O)c1c(C)c(C(=O)Nc2ccc3c(c2)OCCO3)c(C)n1C | 6.37
Cc1ccc(C(C(=O)NC2CCCC2)N(Cc2ccc(F)cc2)C(=O)c2csnn2)o1 (stereo not shown) | 6.51
COc1ccc(N2C(=O)c3ccccc3C(C)(C)C2=O)cc1 | 4.02
Cc1nc(-c2noc(-c3cccc(Cl)c3)n2)c(C(F)(F)F)o1 | 11
Cc1ccc(-n2c(C)cc(C(=O)CSc3nncs3)c2C)cc1 | 7.71
CN(c1ccc(C(=O)N2CCN(Cc3ccccc3)CC2)cc1)S(=O)(=O)c1ccccc1 | 7.76
Cc1ccccc1NC(=O)Cc1nc(COC(=O)CCOc2ccccc2)cs1 | 8.83
CCOP(=O)(OCC)c1ccccc1OCP(C)(=O)COc1ccccc1P(=O)(OCC)OCC | 16
c1ccc2c(NCC3CCCO3)nc(-c3ccncc3)nc2c1 (stereo not shown) | 8.67
O=C(NNC(=O)c1ccco1)c1csc(N2CCOCC2)n1 | 10.4
O=C1c2cccnc2C(O)N1Cc1ccc(F)cc1 (stereo not shown) | 7.31
Cc1nnsc1-c1c(C(=O)Oc2ccccc2)c(C)nn1-c1ccccc1 | 11.9

SMILES | hERG current change (%, negative = inhibition) at 1uM [%]
COc1ccc(-c2noc(CN(C)C(=O)c3ccco3)n2)cc1 | 12.6
Cc1cc(C)c(S(=O)(=O)N2CCN(C(=O)C(C)Cn3cncn3)CC2)c(C)c1 (stereo not shown) | 13.5
CN1CCN(Cc2ccccc2Sc2ccccc2)CC1.O=C(O)/C=C\C(=O)O | -68.1
Cc1ccc(-c2cc(C(=O)NCc3ccco3)c3ccccc3n2)o1 | 9.84
Cc1c(C=O)c2cc(OCc3ccccc3)ccc2n1C | 12.5
COc1cccc(C(=O)/C=C2\Sc3ccccc3N2C)c1 | 14
CCCCOC(=O)Nc1ccc(S(=O)(=O)Nn2cnnc2)cc1 | 17.4
CCCN(C(=O)c1cn(CC)c2nc(C)ccc2c1=O)c1c(N)n(Cc2ccccc2)c(=O)[nH]c1=O | 1.39
CC(NC(=O)CC(O)(C(F)(F)F)C(F)(F)F)c1ccccc1 (stereo not shown) | 6.31
Cc1cc(NC(=O)CSc2ccc(-c3ccc(F)cc3)nn2)no1 | 13.1
CS(=O)(=O)Nc1ccccc1C(=O)Nc1ccccc1Cl | 0.659
Cl.OC(COc1ccc(Cl)cc1)CN1CCC(Cc2ccccc2)CC1 (stereo not shown) | -89.6
O=C(COC(=O)c1cccc(O)c1)Nc1ccc(OC(F)F)cc1 | -6.9
CCN(CC(=O)Nc1ccccc1C(F)(F)F)C(=O)CSCc1c(C)noc1C | 4.47
CCN1C(=O)NC(c2ccccc2)C1=O (stereo not shown) | 16.8
O=C1c2ccccc2C(=O)N1CCc1ccccn1 | 16.1
CCN1C(=O)/C(=C/c2ccc(C)s2)SC1=Nc1ccc(OC)cc1 | -1.24
O=S(=O)(c1ccc(Cl)cc1)N1CCC2(CC1)OCCO2 | 2.73
Cc1cccc(N=C2NN=C(c3c(C)[nH]c4ccccc34)CS2)c1 | 17.4
CC(C)c1onc(C(=O)N2CCN(Cc3ccccc3)CC2)c1[N+](=O)[O-] | 1.48
O=c1c2cc(N3CCOCC3)ccc2[nH]c(=S)n1CCc1ccccc1 | 4.9
